The RNAGym collection of RNA variant scans (doi:10.7554/elife.90254)
The source gives no read counts; variants with many changes may rest on few reads.

B1: LINE1-mini (parent)
chain: GGCAGAGCUCAACACAGCGUGGCAAAGUGGCUGUGGCUAGACUGCC

Variants of: B1
Experiment: self-cleavage, relative activity (ratio to wild type); higher = more cleavage; in vitro, sequencing; the parent is a self-cleaving ribozyme

Variant | self-cleavage
GGCAUAGCUCAACACUGCGUGGCAAAGUGGCUGUGGCGAGACUGCC | 0.03
GGCAUAGAUCAAGACAGUGUGCCAAAGUGGCUGUGCCUGGACUGCC | 0.1
GGCAUAGCUCAACACGGCGUGGCGAAGUGGUUGUGGCUAGACUGCC | 0.03
GGCAUAGAUCAACACAGCGUGGCAAAGUGGCUGUUGAUAGACUGCC | 0.13
GGCAUAGAUCAAAACAGCGUGGCAAAGUGGCUGUGGCUGGACUGCC | 0.15
GGCAUAGCUCAACGCAUCGUGGCAAAGUGGCUGUGGCUAGACUGCC | 0.09
GGCAUAGCUCAACACAGCGUGGCAAUGUGGCUGUGGCUAGACCGCC | 0.04
GGCAUAGCUCAUCACAGCGUGGCAAAUUGGCUGUGGCUAGACUGCC | 0.09
GGCAUAGAUCAACACAGCGUGGCAAAGUGACUGUGGCUAGACUGAC | 0.44
GGCAUAGCUCACCACAUCGUGGCAAAGUGGCUGUGGCUAGACUUCC | 0.01
GGCAUAGCUCAACGCAAAGUGGUUAAGUGGCUGUGGCUAGACUGCC | 0.03
GGCAUAGCUCAACACAGCGUGGCAAAGUGGCUGUGGCUGGACUGAC | 0.03
GGCAUAGGUCAACAUAGCGUGGCAAAGUGGCUGUGGCUAGACUGCC | 0.02
GGCAUAGCUCAACACAGCGUGGCACAGUGGCGGUAGCUAGACUGCC | 0.01
GGCAUAGCUCAACACAGCGUGGCGAAGUGGCUGUGGCUAGACUUCC | 0.09
GGCAUAGCUCAACACCCCGAUGGAAAGUGGCUGUGGCUAGACUGCC | 0.06
GGCAUAGCUCAACACAGCGUGGCAAGGUGGAUGUGGCUAGACUGCC | 0.04
GGCAUAGCUCAACACUGCGUUGCAAAGUGGCUGUAGCUAGACUGCC | 0.01
GGCAUAGCUCAACACGGCUUGGCAAAGGGGCUGUGGCUAGACUGCC | 0.02
GGCAUAGCUCAUCACAGCGUGCCAAAGUGGCUGUGGCUAGACUGCC | 0.04
GGCAUAGCUCAACACUGCGUGGGAAAGAGGCUGUGUCUAGACUGCC | 0.03
GGCAUAGCUCAACACCGCGUGGCAUAGUGGCUGUGGCUCGAUUGCC | 0
GGCAUAGCUCAACUCAGCCUGGCAAAGUGCCUGUGGCUAGACUGCC | 0.08

Variant | self-cleavage
GGCAUAGAUCAACACAGCGUGGCAAAGGGGCUGUGGCUAGACUGCC | 0.19
GGCAUAGCUCAGCACAGCGUGGCAAAGUGGCUGUGUCUAGACUGCC | 0.01
GGCAUAGCUCAGCACAGCGUGGCAAACUGGCUGUGGCUAGACUGCC | 0.02
GGCAUAGCUCAACACGGCGUGGCAAGGUGGCUGUGGCUAGACUGCC | 0.01
GGCAUAGCUCAACACAGCGUGGCAAAGUGGCUGUGGCUCGACUGCA | 0
GGCAUAGCUCAACACAGCGUGGCAAAGUGGCUGUGGCUCGACUGCU | 0.05
GGCAUAGAUCAACACCGCGUGGCAAAGUGGCUGAGUCUGGACUGCC | 0.49
GGCAUAGGUCAACACGGCGUGGCACAGUGGCUGUGGCUAGACUGCC | 0.1
GGCAUAGGUCAAUACAGCGUGGCAAAGUGGCUGUUGCUAGACUGCC | 0.08
GGCAUAGCUCAACACCGCGUGGCAAAGUGUCUGUGGCUAGAUUGCC | 0.01
GGCAUAGCUCAGCACAGAGUGGCAUAGUAGCUGUUGCUAGACUGCC | 0.02
GGCAUAGCUCAACCCAGCGUGGCAAAGUGGCUGUGGAUAGACAGCC | 0.16
GGCAUAGCUCAGCACAGUGUGGCAAAGUGGCUGUGGCUAGACUGCC | 0.01
GGCAUAGAUCAACACAGCGUGGAAAAGUGGCUGUGGCUAGACUGCC | 0.12
GGCAUAGCUCAACACAGCGUGGCACAGUGGCUGUGGCUAGACGGGC | 0.02
GGCAUAGCUCAACUCAGCGUGGCAAAGUGGCUUUGGCUAGACAGCC | 0.06
GGCAUAGAUCAACACAGCGUGGCAAAGUGGCUGUGGCUAGACAGCC | 0.05
GGCAUAGAUCAACACAGCGUGGCAAAGUGGCUGUGGCUAGACCGCC | 0.71
GGCAUAGGUCAACAUAGCGUGGCAAAGUGGCAGUAACUACACUGCC | 0.03
GGCAUAGCUCAACACGGCGUGGCAAAGUUGCUGUGGCUAGACUGCC | 0.29
GGCAUAGCUCAACACAGCGUGGCAAAGUGGCUGUGGCUAGUCUGCU | 0.05
GGCAUAGCUCAACACUGCUUGGUAACGUGGCUGUGGCUAGACUGCC | 0.07
GGCAUAGCUCACCACAGCGUGCCAAGGUGGCUGUGGCUAGACUGCC | 0.02

Variant | self-cleavage
GGCAUAGCUCAACACAGCGUGGCAUAGUGGCUGUGGCUAGGCUGCC | 0.06
GGCAUAGCUCAACACUGCGUCGCAAAGUGGCUGUGGCUAGACUGCC | 0.05
GGCAUAGCUCAGCACAGCGAGGCAACGUGGCUGUGGAUAUACUGCC | 0.03
GGCAUAGCUCAUCACAGCGUGGCAAAGUGGCUGUGGCUAGACUCUC | 0.09
GGCAUAGCUCAACACAGCGUGGCACAGUGGCUGUGGCUACACUGCC | 0.03
GGCAUAGCUCAACACAGCGUGGCAACGUGGCUGUGGCAAGACUGCC | 0.07
GGCAUAGCUCAACACGGCGUGGCAAAGUGGCUGUGGCUAGACUACC | 0.02
GGCAUAGAUCAACACAGCGUGGCGAAGUGGCUGUGGCUAGACUGCG | 0.54
GGCAUAGCUCAACACAGCGUGGCAGAGUGGCUGUGGCUAGACUACC | 0.17
GGCAUAGCUCAUCACAGAGUGGCAAAGUGGCUGUGGCUAGACUGCC | 0.12
GGCAUAGGUCAACACAGCGUGGCAAAGUGGAUGUGGCUAGACUGCC | 0.07
GGCAUAGCUCAACACUGCGGGGCAAAGUGGCUGUGGCUAGACUUCC | 0.02
GGCAUAGCUCAACCCAGCGUGGCAAACUGGCUGUGGCUAGACUGCC | 0.01
GGCAUAGCUCAACACGGCGUGGCAAAGUGGCUGUGGCUAGAUUGCC | 0
GGCAUAGCUCACCACAGCGUUGCAAAGUGGCUGCGGCCAGACUGCC | 0.01
GGCAUAGCUCAUCACAGCGUGGCAAAGUGGCUGUGGCUAGACCGAC | 0.05
GGCAUAGCUCAACACGGCGUGGCAAACUGGCUGUAGCUAGACUGUC | 0.02
GGCAUAGCUCAACACAGCGUGGCAUAGUGGCUGGGCCUAGACUGCC | 0.04
GGCAUAGCUCAACGCAGCGUGGCAUAGUGGCGGUGGCUAGACUGCC | 0.03
GGCAUAGCUCAACACAGCGUGGCAAAGUGGCUGUGGCUUGAAGGCC | 0.08
GGCAUAGCUCAGCACAGCGUGGCAAAGUGGCUGUGGCUAGAUUGCC | 0.04
GGCAUAGCUCAACACUGAGUCGCAAAGUGGCUGUGGCUAGACUGCC | 0.01
GGCAUAGCUCAUCACAGCGUGGAAAAGUGGCUGUGGCUAGACUGCC | 0.03

Variant | self-cleavage
GGCAUAGCUCAACGUAGCGUGGUAAAGUGGCUGUGGCUAGACUGCC | 0.08
GGCAUAGGUCAACACAGCGUGGCAAACUGGCUGUGGCUAGACUGCC | 0.01
GGCAUAGCUCAACACAGCGUGGCCAAGUGGCUGUGGCUGGACUGCC | 0.11
GGCAUAGCUCAACACUGCGUGGCAAAGUGGAUGAGGCUAGACUGUC | 0.02
GGCAUAGCUCAACGCAGCGUGGCACAGUGGCUGUGGCUAGACUGCC | 0.05
GGCAUAGCUCAACACAGCGUGGCAACCUGGCUGUUGCUAGACUGCC | 0.02
GGCAUAGGUCAACACAGUGUGGCCAAGUGGCCGUGGCUAGACGGUC | 0.02
GGCAUAGAUCAAAACAGCGUGGCAAAGUGGCUGUGGCUAAACUGCC | 0.47
GGCAUAGCUCAACGCAGCGUGGCAAAGUGGCUGCGGCUAGACUGCC | 0.28
GGCAUAGCUCAACACUGCGAGGCAAAGUGGCUGUGGCUAGACUGCC | 0.01
GGCAUAGGUCAACACAUCGUGGCAAAGUGGCUGUGGCUAGACUGCC | 0.24
GGCAUAGAUCAAUACAGCGUGGCAAAGUGGCUGUGGCUGGACUGCA | 0.47
GGCAUAGAUCAACACUGCGUGGCAAAGUGGCUGUGGCGAGACUGCC | 0.08
GGCAUAGCUCAUCACAGCGUGGCAAAGUGGCUGUGGCUAGACUCCC | 0.12
GGCAUAGCUCAACACAGCGUGGCAUAAUGGCUGUGGCUAGACUGCC | 0.06
GGCAUAGCUCAACACAGCGUGGCAUAGUGGCUGUGACUAGACUGCC | 0.05
GGCAUAGCUCAACACAGCGUGGCGAAGUGGCUGUGGUUAGACUGCA | 0.03
GGCAUAGGUCAACACAGCGUGCCAAAGUGGCUGUGUCUAGACUGCC | 0.03
GGCAUAGCUCAACCCAGCGUGGCAAAGUGGCUGUGGUUAGACUGCC | 0.03
GGCAUAGCUCAUCACAGCGUCGCAAAGUGGCUGUGGCUAGAAUGCC | 0.53
GGCAUAGCUCAGCACAGCGUGGCAAAGUGGCUGUGGUUAGACUGCC | 0.01
GGCAUAGCUCAACUCAGCGUGGCAAAGUGGCUGUGGCUAGUAUGCC | 0.04
GGCAUAGCUCAGCAGAGCGUGGCAACGUGGAUGUGGGUAGACUGCC | 0.04

Variant | self-cleavage
GGCAUAGCUCAACGCAGCGUGGCAAAGUGGCUGUGGCUAUACUGCC | 0.06
GGCAUAGCUCAACACAGCGUGGCACAGUGGCUGUGGCUAGACGGCC | 0.05
GGCAUAGCUCAACUCAGCUUGGCAAAGGGGCAGAGGCUAGACGUCC | 0.02
GGCAUAGCUCAACACAGCGUGGCGAAUUGGUUGUGGCUAGACUGCC | 0.04
GGCAUAGCUCAACACUGCGUGGCAAAGUGGCUGUGGCUAGAAUGCC | 0.01
GGCAUAGCUCAACGCAGCGUGGCAAAGUGGCUGUGGCUAGACUGGC | 0.13
GGCAUAGCUCAACACAGCGUGGCGAAGUGGCUGUGGCUAGACGGCC | 0
GGCAUAGCUCAUCACAGCGUGGCGAAGUGGCUGUGGCUAGAGUGCC | 0.01
GGCAUAGCUCAACACAGCGUGGCUAAGUGGCUGUGGUCAGACUGCC | 0.01
GGCAUAGAACAACACAGCGUUGCAAAGUGGCCGUGGCUAGACUGCG | 0.02
GGCAUAGCUCAACACAGCGUGGCAAUGUGGCUGUGGUUAGACUCCC | 0.04
GGCAUAGCUCAACACAGCGUGGCAACGUGGCUGUGGCUAGUCUGGC | 0.02
GGCAUAGCUCAACGCAUCGUGGCAAAGUGGCUGUGGCUAGUCAGCC | 0.08
GGCAUAGCUCAACUCAGCGUGGCAAAGUGGUUGUGGCUAGACUGCC | 0.01
GGCAUAGCUCAACUCAGCGUGGCAAAGUGGAUGUGGCUAGACUGCC | 0.01
GGCAUAGCUCAACACAGCGUGGCAAUGUGGCUGUGGCUAGAUUGCC | 0.03
GGCAUAGAUCAACACAGCGUGGCAAAGUGGCUGUGGCUAGACUGGC | 0.58
GGCAUAGCUCAACCCAGCGUGGCAAAGUGGCUGUGGCUAGACUUCC | 0.02
GGCAUAGCUCAACACAGCGUGGCAACGUGGCUGUGGCUAGACCGCC | 0.01
GGCAUAGCUCAUCACAGCGGGGCAAAGUGGCUGUGGCUAGACUGCC | 0.02
